Our source for the EC50 values is patent publication US20250333487A1 (CYTOMX THERAPEUTICS, published 2025).

Experiment [1] addresses T1, BC2T peptide (leader sequence + BC2T MM), coated on the ELISA plate.
T1 peptide: QGQSGQPDRKAAVSHWQQ
Briefly: ELISA. In general terms: In an ELISA, binding on a coated surface is turned into a signal by an enzyme label.

Experiment [2] addresses T1, BC2T peptide (leader sequence + BC2T …). In words: ELISA; uPA-treated.

Numbering of substitutions follows the chain as printed. Names may count otherwise.

B1: ProC1283 (HC697), Fc-tagged single-domain antibody with no MM attached (Nanobody-IgG1) (Fc fusion)
chain: QVQLVESGGGLVQPGGSLTLSCTASGFTLDHYDIGWFRQAPGKEREGVSCINNSDDDTYYADSVKGRFTIFMNNAKDTVYLQMNSLKPEDTAIYYCAEARGCKRGRYEYDFWGQGTQVTVSSGGGG[no letters for human IgG1 Fc]
notes: also called unmasked control protein; positive control
Take B1: in experiment [1], the EC50 (usually the concentration that produces a half-maximal response) worked out at 0.000642 µM.

B2: ProC1284 (HC698), single-anchored BC2T-Nb-IgG1 (BC2 tag-1490DNI-Nanobody-IgG1), intact (Fc fusion)
chain: QGQSGQPDRKAAVSHWQQGGGSSGGSISSGLLSGRSDNIGGGSQVQLVESGGGLVQPGGSLTLSCTASGFTLDHYDIGWFRQAPGKEREGVSCINNSDDDTYYADSVKGRFTIFMNNAKDTVYLQMNSLKPEDTAIYYCAEARGCKRGRYEYDFWGQGTQVTVSSGGGG[no letters for human IgG1 Fc]
As to B2, in experiment [1], the EC50 amounted to 6.18 µM.

B3: product of ProC1284 and uPA (ProC1284+uPA) (Fc fusion)
chain: GGGSQVQLVESGGGLVQPGGSLTLSCTASGFTLDHYDIGWFRQAPGKEREGVSCINNSDDDTYYADSVKGRFTIFMNNAKDTVYLQMNSLKPEDTAIYYCAEARGCKRGRYEYDFWGQGTQVTVSSGGGG[no letters for human IgG1 Fc]
B3: the EC50 in experiment [2] stood at 0.000854 µM.

B4: product of ProC1285 and uPA (ProC1285+uPA) (Fc fusion)
chain 1: QGCSGQPDRKAAVSHWQQGGGSSGGS
chain 2: B3 chain with Q118C
modifications: engineered Cys (Q157C) disulfide-bonded to Cys 3 of the mask fragment; Cys 3 of the leader disulfide-bonded to the engineered Cys (Q157C) of the Nb chain
In the case of B4, the EC50 in experiment [2] is 10.8 µM.
